According to publication PMC4336329 (PLoS ONE, 2015):
Screen size: about 310,000 compounds; about 14,000 (4.5%) showed an effect of 50% or more. The effect is printed as a negative number. This is one part of the list.

molecular target: human ether-à-go-go-related gene (hERG) potassium channel (human, UniProt Q12809); assay: primary screen, population patch clamp on CHO cells stably expressing hERG
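Note: peak tail current of the secondary pulse compared with the same well before compound.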

Sequence of human ether-à-go-go-related gene (hERG) potassium channel (Q12809 whole entry, looked up): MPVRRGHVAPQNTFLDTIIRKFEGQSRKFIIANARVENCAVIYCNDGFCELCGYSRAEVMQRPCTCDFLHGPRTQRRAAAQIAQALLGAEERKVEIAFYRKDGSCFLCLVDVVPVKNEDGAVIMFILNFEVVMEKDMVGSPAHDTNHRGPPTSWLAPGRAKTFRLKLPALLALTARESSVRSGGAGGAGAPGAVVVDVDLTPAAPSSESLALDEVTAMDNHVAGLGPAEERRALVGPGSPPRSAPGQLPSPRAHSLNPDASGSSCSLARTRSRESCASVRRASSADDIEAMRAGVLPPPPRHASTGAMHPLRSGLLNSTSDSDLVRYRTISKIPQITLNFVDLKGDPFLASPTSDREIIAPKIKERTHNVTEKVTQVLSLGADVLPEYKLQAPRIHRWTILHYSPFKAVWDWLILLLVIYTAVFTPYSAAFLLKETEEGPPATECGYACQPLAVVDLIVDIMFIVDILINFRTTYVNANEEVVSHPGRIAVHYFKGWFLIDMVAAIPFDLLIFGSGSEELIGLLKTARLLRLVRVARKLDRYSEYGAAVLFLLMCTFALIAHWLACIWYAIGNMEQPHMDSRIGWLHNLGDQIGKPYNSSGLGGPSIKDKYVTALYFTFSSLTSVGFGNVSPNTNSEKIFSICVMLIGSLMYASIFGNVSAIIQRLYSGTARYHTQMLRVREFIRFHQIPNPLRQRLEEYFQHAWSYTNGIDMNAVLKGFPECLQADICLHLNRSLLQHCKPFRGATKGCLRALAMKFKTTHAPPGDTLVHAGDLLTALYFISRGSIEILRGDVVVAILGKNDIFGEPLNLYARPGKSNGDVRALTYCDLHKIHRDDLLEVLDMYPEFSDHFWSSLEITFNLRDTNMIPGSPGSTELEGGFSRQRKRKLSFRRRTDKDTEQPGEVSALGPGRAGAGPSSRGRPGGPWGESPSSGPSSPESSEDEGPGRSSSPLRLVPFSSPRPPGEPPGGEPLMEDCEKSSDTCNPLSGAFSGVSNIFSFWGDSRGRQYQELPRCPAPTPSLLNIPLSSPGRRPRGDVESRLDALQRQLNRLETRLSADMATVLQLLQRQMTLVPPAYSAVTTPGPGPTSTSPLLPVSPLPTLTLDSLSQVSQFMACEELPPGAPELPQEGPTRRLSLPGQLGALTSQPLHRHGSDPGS

Row | SMILES | hERG current change (%, negative = inhibition) at 10uM [%]
1 | COc1cc(/C=N/NC(=O)c2cccnc2)ccc1OC(=O)c1cccc(Br)c1 | 5.79
2 | CCCCN1C(=O)CC(C(=O)O)C1c1ccc(OC)cc1 (stereo not drawn) | -3.09
3 | COC(=O)c1ccc(C)c(-n2c(=O)n(Cc3ccccc3)c(=O)c3[nH]cnc32)c1 | 0.882
4 | C#CCOc1ccc(Cl)cc1/C=C1/C(=O)ON=C1C | 12.6
5 | NS(=O)(=O)c1ccc(NC(=S)NCc2ccc(F)cc2)cc1 | -16.3
6 | Cc1nnc(SCC(=O)NNC(=O)c2ccc(Cl)cc2)s1 | 25.6
7 | CCCN(CCO)Cc1cccc(Oc2ccccc2)c1 | -19.2
8 | COc1ccccc1-c1c(C)nn2c(C)c(C(C)=O)cnc12 | -1.84
9 | C=CCn1c(COc2ccc(Cl)cc2)nnc1SCc1ccc(C#N)cc1 | -69.8
10 | CCOC(=O)COc1nc2ccc(Br)cc2c(-c2ccccc2)c1C(C)=O | 12.1
11 | Cc1ccc2sc(C)[n+](CCO)c2c1.[I-] | 18.8
12 | CC(C)CCNC(=O)C1CCC(CNc2c(N3CCC(C)CC3)c(=O)c2=O)CC1 (stereo not drawn) | 11.3
13 | O=S(=O)(Cc1ccccc1)Nc1ccc(S(=O)(=O)N2CCCC2)cc1 | 5.25
14 | O=C(c1cc2ccccc2c(=O)o1)N1CCCCCC1 | -10.8
15 | Cl.Fc1ccccc1COc1ccc(Br)cc1CNCc1ccncc1 | -70.2
16 | O=C(CCC1CCCC1)Nc1cccn(Cc2ccccc2Br)c1=O | -14.5
17 | Cn1ccnc1SCc1cccc([N+](=O)[O-])c1 | -39.6
18 | CCc1nnc(NC(=O)CSc2sc3c(O)cc(=O)[nH]c3c2C#N)s1 | -2.53
19 | CC(Oc1ccc(Br)cc1)C(=O)O/N=C(\N)c1ccncc1 (stereo not drawn) | 5.16
20 | CCCCn1c(=O)nc2n(-c3ccc(Cl)cc3)c3ccccc3cc-2c1=O | 6.05
21 | CCOc1cccc(-c2nn3c(-c4ccccn4)nnc3s2)c1 | 6.33
22 | COc1cc(OC)cc(C(=O)NCCSCc2ccc(Cl)cc2)c1 | -13.1
23 | CCN1CCN(CCNC(=O)c2ccc3c(c2)N(Cc2ccc(F)cc2)C(=O)c2ccccc2S3=O)CC1 (stereo not drawn) | -11.6

Row | SMILES | hERG current change (%, negative = inhibition) at 10uM [%]
24 | O=C(C1CCCO1)N(c1cccc(Cl)c1)C1C=CS(=O)(=O)C1 (stereo not drawn) | -1.98
25 | CC(=O)c1ccc(N2CCN(c3ccccc3O)CC2)c([N+](=O)[O-])c1 | 8.34
26 | Cc1ccc(C(=O)Nc2nc3ccccc3s2)s1 | 8.75
27 | COC(=O)c1ccccc1NC(=O)c1ccccc1NS(C)(=O)=O | -32.1
28 | COC(=O)c1ccc(COC(=O)c2cnc(Cl)c(Cl)c2)cc1 | 11.7
29 | CCn1ccnc1CNC(=O)c1cc(COc2ccc(F)cc2F)on1 | 1.1
30 | COCCNc1nc2nonc2nc1N(C)Cc1ccc(C)cc1 | -12.9
31 | CC1=CC2=NC(=O)/C(=C\c3cccn3CCOc3ccc(C)c(C)c3)C(=N)N2O1 | -14.5
32 | CCc1[nH]nc(C(=O)N2CCCC(Nc3cccc(F)c3)C2)c1C (stereo not drawn) | 16
33 | Cc1nc(SCC(=O)Nn2c(-c3ccccc3)nc3ccccc3c2=O)n[nH]1 | -2.34
34 | Cc1ccc(-c2nc(CSCC(=O)NC3CCN(Cc4ccccc4)CC3)c(C)o2)cc1 | -44
35 | O=C(COC(=O)c1ccc(CO)cc1)Nc1ccc(OC(F)F)cc1 | -3.17
36 | COC(=O)C(C)Oc1cc(C)cc2oc(=O)c3c(c12)CCC3 (stereo not drawn) | -12.7
37 | CCCCOc1ccc(NC(=O)CSc2nnnn2C)cc1 | -2.43
38 | O=C(Nc1ccc2c(c1)OCCO2)c1ccc(Cl)c(Cl)c1 | 2.3
39 | CC(C)Cn1c(=O)c(C(=O)N/N=C/c2cccc(F)c2)c(O)c2ccccc21 | 8.46
40 | Nc1ncnc2c1ncn2CCN1CCOCC1 | -5.44
41 | CCn1c(SCC(=O)N2CCCc3ccccc32)nc2cccnc21 | 11
42 | CCC(C(=O)Nc1ccon1)c1ccccc1 (stereo not drawn) | 2.45
43 | Cc1ccccc1-n1nc(-c2cccnc2)cc1C(=O)N/N=C/c1ccncc1 | -28.5
44 | COc1cccc(C2Nc3ccccc3NC3=C2C(=O)CC(C)(C)C3)c1 (stereo not drawn) | 4.03
45 | C[C@H](O)c1[nH]c2cc(F)ccc2c1[C@H](C)O | 14
46 | CCOC(=O)c1c(NC(=O)COC(=O)c2ccc(O)cc2)sc(C(=O)NC)c1C | -4.31

Row | SMILES | hERG current change (%, negative = inhibition) at 10uM [%]
47 | CCN(c1ccc(OC)cc1)S(=O)(=O)c1ccc2c(c1)NC(=O)CS2 | 0.887
48 | COC(=O)C1=C(NC(=O)CCCCl)CCS1 | 4.44
49 | Nc1c(-c2ccsc2)cnc2ncnn12 | 3.99
50 | COc1ccc(CCNC(=S)N2CCN(S(=O)(=O)c3ccccc3F)CC2)cc1 | -3.68
51 | COc1ccc(C(=O)CSc2nnc(C3CC3)n2N)cc1 | -20.7
52 | c1ccc(OCCCn2nnc(-c3cccnc3)n2)cc1 | -9.25
53 | CC(=O)Nc1ccc(S(=O)(=O)N2CCN(CC(O)COc3ccc4ccccc4c3)CC2)cc1 (stereo not drawn) | -22.6
54 | O=C(c1cccs1)N1CCc2ccccc2C1 | 15.7
55 | Br.NCc1cc(=O)[nH]o1 | 2.7
56 | COc1ccc(NS(=O)(=O)c2ccc3c(c2)NC(=O)CO3)c(OC)c1 | 5.54
57 | CCOC(=O)C1=C(C)N=C2SCCC(=O)N2[C@@H]1c1cccs1 | 5.23
58 | CC1CCN(S(=O)(=O)N2CCC(C(=O)NCCN3CCOCC3)CC2)CC1 | -0.384
59 | O=C(O)c1cnn2c(C(F)(F)F)cc(-c3ccccc3)nc12 | 8.78
60 | CC(C)c1nnc(NC(=O)c2ccc(S(=O)(=O)N3CCOCC3)cc2)s1 | 6.52
61 | Cc1csc(NC(=O)c2ccc3nc[nH]c3c2)n1 | -20
62 | Cc1ccc(Oc2nnc(-c3ccc(C)cc3)c3ccccc23)cc1 | 2.75
63 | COc1cc(NC(=O)Cn2c(=O)n(CC3CCCO3)c(=O)c3cc(OC)c(OC)cc32)cc(OC)c1 (stereo not drawn) | 9.3
64 | O=C(Nc1ccccc1)C1CCCCN1S(=O)(=O)c1ccccc1 (stereo not drawn) | 1.13
65 | O=S(=O)(c1ccccc1F)N1CCN(c2nc(-c3cccnc3)nc3ccccc23)CC1 | -41.9
66 | COc1ccc(-n2nc(C(=O)NCC(=O)N3CCN(Cc4ccccc4)CC3)c3ccccc3c2=O)cc1 | -25.7
67 | Nc1nc2c3ccccc3nc(C3CC3)n2n1 | 15.3
68 | CCOc1ccc(-c2cc(C(=O)NCCCn3ccnc3)c3cc(Br)ccc3n2)cc1 | 7.06
69 | CN1CCN(Cc2cn3cccnc3n2)CC1 | 18.2

Row | SMILES | hERG current change (%, negative = inhibition) at 10uM [%]
70 | COc1cc(/C=N\NC(=O)c2ccc(Cn3nc([N+](=O)[O-])c(Cl)c3C)o2)ccc1O | -70.4
71 | O=C(NC1CCN(S(=O)(=O)c2ccccc2C(F)(F)F)CC1)c1ccco1 | -21.5
72 | CCC(=O)NC(=S)Nc1ccc(NC(=O)c2cccc([N+](=O)[O-])c2C)cc1 | 18.1
73 | CC(CC(=O)N(C)CC(=O)Nc1ccc(N2CCOCC2)cc1)c1ccccc1 (stereo not drawn) | -13.3
74 | CC(=O)NC/C(C)=N\Nc1ccc([N+](=O)[O-])cc1 | -31.9
75 | CCn1nc(C)c(C2C(C#N)=C(N)Oc3n[nH]c(C)c32)c1C (stereo not drawn) | 17.8
76 | COc1ccccc1-n1c(CCn2nc(C)c(Br)c2C)n[nH]c1=S | 12.2
77 | O=C(NNC(=O)c1ccccc1C(=O)O)c1ccc(O)cc1 | 9.6
78 | COc1cc(C(C2C(=O)CC(C)(C)CC2=O)C2C(=O)CC(C)(C)CC2=O)cc(OC)c1OC | 11.4
79 | O=C(c1ccc(CSc2nc3ccncc3[nH]2)cc1)N1CCN(c2cccc(Cl)c2)CC1 | -17.6
80 | Cc1ccc2occ(/C=N/NC(=O)c3ccc(Cl)cc3)c(=O)c2c1 | 16.1
81 | CN1CCN(S(=O)(=O)c2cccc(C(=O)NC3CCCc4ccccc43)c2)CC1 (stereo not drawn) | -7.42
82 | COc1ccc(C(=O)Nc2ccc3c(c2)OCCO3)cc1 | -1.06
83 | CCOC(=O)C1CCCN(C(=S)Nc2cc(C)cc(C)c2)C1 (stereo not drawn) | -10.2
84 | COCCNC(=O)CCn1nc(-c2ccc(Cl)cc2)c2ccccc2c1=O | -28
85 | CN1C(=O)C(Cc2ccc3c(c2)OCO3)C(=O)N(C)C1=O | 6.84
86 | Cc1cccc(C)c1NC(=O)CSc1nc2c([nH]1)c(=O)n(C)c(=O)n2C | 3.49
87 | Cc1ccc(C#CC[N+]2(CC#Cc3ccc(C)cc3)CCCCC2)cc1.[Br-] | -106
88 | Cc1c(Br)c(=O)oc2c(Br)c(O)c(O)cc12 | -2.64
89 | CC12CCC(C/C1=N/NC(=O)COc1ccccc1Cl)C2(C)C (stereo not drawn) | -2.79
90 | O=C(CCCCn1c(=O)c2ccccc2n(CC(=O)Nc2cccc(F)c2)c1=O)NCc1ccco1 | 7.96
